From PubChem BioAssay AID1159614 (National Center for Advancing Translational Sciences (NCATS), 2016)
Out of some 45,000 compounds screened, about 65 (0.1%) were called active. Calls come from the whole dose curve; as a rule, active = well fitted activation curve with a large enough effect; inconclusive = small, poorly fitted or top-dose-only effect; inactive = no such curve, though single readings can be large or run the other way. Some of the results follow.

target: Galactocerebrosidase (Homo sapiens) (UniProt P54803); assay: A Novel Cell-Based Assay to Identify Small Molecules for B -Galactocerebrosidase; settings: 145M-Twi-hGALC-G270D cells, HMU-beta-Gal fluorescence, 48 h; series mostly up to 57.5 µM; activation: at the top concentration; note: 0% is about no effect; nearly all actives have a fitted effect of over 65% in size
Chain of UniProt P54803 (P54803 whole entry, looked up): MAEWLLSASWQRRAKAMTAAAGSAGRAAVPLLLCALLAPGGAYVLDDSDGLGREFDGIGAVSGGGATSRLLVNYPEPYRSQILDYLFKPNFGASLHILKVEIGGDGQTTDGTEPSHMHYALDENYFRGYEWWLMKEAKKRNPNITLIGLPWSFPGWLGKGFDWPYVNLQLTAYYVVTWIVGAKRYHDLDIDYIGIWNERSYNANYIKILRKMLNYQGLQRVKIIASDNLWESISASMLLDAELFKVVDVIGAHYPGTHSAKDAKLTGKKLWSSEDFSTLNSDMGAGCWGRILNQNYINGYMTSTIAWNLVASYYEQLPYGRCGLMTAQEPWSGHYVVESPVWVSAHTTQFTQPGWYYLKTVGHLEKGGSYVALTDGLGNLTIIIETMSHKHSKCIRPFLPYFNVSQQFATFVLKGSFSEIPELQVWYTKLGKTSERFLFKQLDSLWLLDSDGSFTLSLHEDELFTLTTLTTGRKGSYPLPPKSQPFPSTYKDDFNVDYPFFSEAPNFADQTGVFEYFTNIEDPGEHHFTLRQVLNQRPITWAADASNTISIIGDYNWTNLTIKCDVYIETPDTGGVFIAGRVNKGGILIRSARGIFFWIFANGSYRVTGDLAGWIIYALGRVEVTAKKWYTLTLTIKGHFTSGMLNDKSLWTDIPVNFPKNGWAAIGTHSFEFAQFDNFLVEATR
How it was run: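 qHTS, 1536-well; 145M-Twi-hGALC-G270D cells (WT line also made) in DMEM/F12 + 10% FBS; compound incubation on live cells; HMU-β-gal 0.1 mM final, pH 5.2, NaTC; carbonate stop; fluorescence increase = enhanced residual activity.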

activation, inactive:
CCN(CC)CCCNC(=O)CN1C(=O)CCn2nc(-c3cn(C)c4ccccc34)cc21 -9.63%, Cc1ccc(C(=O)c2cn(CC(=O)NC3CCCCC3)c3nc(C)ccc3c2=O)cc1 -13.5%, Cc1c(C(=O)N2CCCC2)oc2c1-c1nn(CC(=O)NCCCOC(C)C)cc1CC2 1.86%, COc1cccc(C(=O)Nc2ccccc2C(=O)OCc2cc(=O)n3nc(C4CC4)sc3n2)c1 -11.7%, Cc1nnc(NC(=O)CSCc2cc(=O)c3cc(Cl)ccc3[nH]2)s1 7.35%, O=S(=O)(NCc1ccc(F)cc1)c1ccc(-c2cnc(C3CC3)o2)cc1 -13.4%, O=C(Nc1cc2c(cc1C(=O)c1ccccc1)OCCO2)c1ccc(Br)cc1 -4.73%, O=C(c1cccn1-c1nnc(N2CCCC2)s1)N1CCN(c2ccccc2)CC1 -3.21%, CN(C)CCN(Cc1ccccc1)S(=O)(=O)c1ccc2[nH]c(=O)ccc2c1 -14.3%, O=C(NC1CC(=O)N(c2cccc(F)c2)C1)C1CCCC1 (stereo not drawn) -1.46%, Cc1c(C)c2c(cc(C)c3c(-c4ccccc4)coc32)oc1=O -24.5%, COc1ccccc1-n1ncc2c(=O)[nH]c(SCC(=O)Nc3ccc(Cl)cc3)nc21 -2.17%, Cc1ccc(CNC(=O)c2cccn2-c2nnc(N3CCCCC3)s2)cc1 -16.3%, COc1cc(-c2nc(Cn3nnc(C(=O)Nc4ccccc4)c3C)c(C)o2)cc(OC)c1OC -13.5%, COc1cccc(-n2cc(C(=O)NCCc3ccc(C)cc3)c3ccccc3c2=O)c1 6.34%, COc1ccc2oc(=O)c(-c3csc(-c4ccc(Br)cc4)n3)cc2c1 -27.2%, CCOC(=O)COc1ccc2c(C)c(CCN(CC)CC)c(=O)oc2c1Cl -13.4%, Cc1ccccc1-c1nc(SCC(=O)NCc2ccco2)c2c(=O)n(C)c(=O)n(C)c2n1 -19.9%, Cc1ccc(CCNC(=O)CS(=O)Cc2nc(-c3ccccc3C)oc2C)cc1 (stereo not drawn) -14.3%, CCN(Cc1ccccc1)C(=O)Cn1c(=O)n(-c2ccc(Cl)cc2)c(=O)c2c(C)c(C(=O)N(C)C)sc21 -3.47%, CCCCN(C)S(=O)(=O)c1ccc(C(=O)Nc2sc3c(c2C(N)=O)CC(C)(C)NC3(C)C)cc1 -23.2%, CCCc1ccc(-c2ccc(C(=O)Oc3ccc(OCC)cc3)cc2)nc1 4.72%, CCCc1ncc(C(=O)O)s1 -6.1%, O=C(Cn1ncc2c3ccccc3n(Cc3cccc(Cl)c3)c2c1=O)NCc1cccs1 -10.9%, CCc1ccc(OCc2nc(-c3ccc(OC)cc3)no2)c(Br)c1 -9.67%, O=C(Cn1cnc2c(oc3ccccc32)c1=O)Nc1ccc(F)cc1F -17.1%, O=C(CSc1nc2c(oc3ccccc32)c(=O)n1Cc1ccco1)Nc1ccccc1Cl -4.11%, O=S(=O)(c1ccc2nc(NCc3ccccc3Cl)ccc2c1)N1CCCCC1 -17%, O=C(Nc1nc2ccccc2s1)c1ccc(S(=O)(=O)N2CCCC2)cc1 -6.69%, CC(CNC(=O)c1ccc(CSc2nc3ccncc3n2Cc2ccccc2)cc1)c1ccccc1 (stereo not drawn) 4.74%, COc1ccc(CNC(=O)CSc2nc(-c3ccc(OC)c(OC)c3)cc(C(F)(F)F)n2)cc1 -9.17%, COc1cc(Cl)c(NS(=O)(=O)c2ccc(-c3cnc(C4CC4)o3)cc2)c(OC)c1 -20%, CCS(=O)(=O)c1nc(S(=O)(=O)c2ccc(C)cc2)c(NCCCOC)s1 -16.6%, CCOC(=O)c1cc(S(=O)(=O)N2CCN(c3ccc(C(C)=O)cc3)CC2)[nH]n1 14.9%, CCCC12CN3CC(CCC)(CN(C1)C3c1ccccc1)C2=O (stereo not drawn) -17.6%, CCOC(=O)c1ccc(NC(=O)NCCOCCn2c(=O)oc3ccccc32)cc1 -7.37%, COc1ccccc1NC(=O)C1CCN(C(=O)c2sc3nc[nH]c(=O)c3c2C)CC1 -30%, O=C(Nc1ccccc1Br)C(Cc1ccccc1)NS(=O)(=O)c1cccc2nsnc12 (stereo not drawn) -14.2%, CCN(CC)CCNC(=O)c1ccc2nc(CCc3ccccc3)oc2c1 -9.6%, CC(=O)c1ccc(NC(=O)c2ccc(-c3ccc(Cl)cc3)o2)cc1 15.2%, CCn1c(CNC(=O)c2ccc(OC)cc2)nnc1SCC(=O)Nc1ccc(C)cc1 2.13%, Cc1cc2oc3c(c(=O)c2cc1C)C1(C(=O)N(C)c2ccccc21)N(CCO)C3=O (stereo not drawn) -1.74%, COc1ccc(N2CC(NC(=O)c3ccco3)CC2=O)cc1 (stereo not drawn) -7.58%, Nc1cc(=O)nc(SCC(=O)Nc2ccc(F)cc2)n1CCc1ccccc1 -16.4%, CCc1cccc(C)c1NC(=O)Cn1c(=O)cc(C)c2c(C)nn(-c3cccc(F)c3)c21 -0.317%, Cc1cccc(CCNC(=O)CCc2c(C)nc3c4c(C)cc(C)nc4nn3c2C)c1 3.66%, COc1ccc(CNC(=O)Cn2ncc3c([nH]c4ccccc43)c2=O)cc1 -11.2%, O=C(NCc1ccc(F)cc1)c1ccc(Nc2nc3ccccc3n3nnnc23)cc1 -15.4%, COc1ccccc1N1CCN(c2cc(C)nc3nc(-c4ccc(C)cc4)nn23)CC1 -5.77%, Cc1c(C(=O)Nc2ccccc2F)sc2ncnc(N(C)C3CCCCC3)c12 1.6%, COc1cc(OC)c(NC(=O)c2cc(C)nc3c2c(C)nn3-c2ccc(C)cc2)cc1Cl -4.41%, COc1ccc(CCNC(=O)c2ccc3c(c2)N(Cc2ccc(Cl)cc2)C(=O)c2ccccc2S3)cc1OC -1.6%, CCOc1ccc(-c2nn(CC(=O)NC3CCCC3)c3c2cnc2ccc(C)cc23)cc1 -24%, Cc1ccc(NC(=O)CCN2CCN(CCO)CC2)cc1C -7.92%, Cc1ccc(S(=O)(=O)CC(=O)Nc2sc3c(c2C(N)=O)CCCC3)cc1 -20%, Cc1ccccc1Nc1c(-c2ccc(Br)o2)nc2ccc(Cl)cn12 -13.2%, CCc1ccc(NC(=O)Cc2c(C(=O)O)c(C)cn2C)cc1 -5.1%, CC(C)CCNC(=O)Nc1ccc2c(c1)N(Cc1ccccc1)C(=O)c1ccccc1S2 5.02%, CC(=O)c1ccc(NC(=O)Cn2c(-n3nc(C)cc3C)nc(C)c(C)c2=O)cc1 -12.1%, CCOC(=O)Cc1ccc(NC(=O)N2CCC(CN3CCCCCC3)CC2)cc1 -15.3%, CCN(CC)c1cc2c(cc1F)c(=O)c(S(=O)(=O)c1ccc(OC)cc1)cn2Cc1ccccc1 -13.6%, CCOc1ccccc1Nc1nnc(-c2cc3cc(OC)ccc3oc2=O)s1 -13.6%, CCCCN(CC)C(=O)c1cc2c(=O)n3cccc(C)c3nc2n1C 1.84%, CCc1ccc(Oc2c(C(F)(F)F)oc3c(CN4CCC(C)CC4)c(O)ccc3c2=O)cc1 -19.9%, CCN(Cc1nc(-c2ccc(OC)cc2)oc1C)S(=O)(=O)c1ccc(C)cc1 -0.795%, Cc1ccc(NC(=O)CN2CCSc3ccc(S(=O)(=O)N4CCCC4)cc32)cc1 -35.6%, Cc1c(CCNC(=O)c2ccco2)sc2nc(-c3ccc(F)cc3)nn12 -5.16%, CCOc1ccc(S(=O)(=O)N(CC(=O)NCc2ccccc2OC)c2ccccc2)cc1 -9.22%, CCCCN(CC)CCCNC(=O)Cn1ncc2c3ccccc3n(C)c2c1=O 1.12%, COc1cccc(CSc2nc3n(n2)C(CC(C)C)C(C(=O)Nc2ccccc2OC)=C(C)N3)c1 (stereo not drawn) 3.27%, COc1ccc(C(=O)N2CCC(C(=O)Nc3ccc(Cl)cc3)CC2)cc1 -10.9%, Cc1ccc(/C(=C\CN2CCCC2)c2ccccn2)cc1 -10.6%, CCOc1ccc(OCC)c(NC(=O)Cn2nc(CC)n3c(cc4sccc43)c2=O)c1 -16.1%, Cc1cc(=O)n2nc(N(C)CC(=O)NCc3cccc(Br)c3)sc2n1 -17.5%, CC(C)CCn1c(=O)c2sccc2n2c(CCCC(=O)NCCc3ccccc3)nnc12 -16.5%, O=C1CC(c2ccccc2)c2c(n3ncnc3[nH]c2=O)N1 (stereo not drawn) -11.3%, CCc1cccc(NC(=O)Cn2c(=O)n(CC(=O)NCCc3ccccc3)c(=O)c3ccccc32)c1 -0.388%, Cc1nc2ccc(S(=O)(=O)N(CC(=O)Nc3cccc(F)c3)Cc3ccccc3)cc2s1 -5.66%, COc1ccc(NC(=O)Cn2c(SCc3ccc(F)cc3)nc3cccnc32)cc1OC -9.64%, CC(C)N(C)C1CCN(S(=O)(=O)c2ccc3[nH]c(=O)ccc3c2)CC1 -15%, OC[C@H]1O[C@@H](OCCc2ccc(O)cc2)[C@H](O)[C@@H](O)[C@H]1O -2.67%, COc1ccccc1C(=O)N1CCC(c2noc(-c3ccc(S(=O)(=O)N4CCCC4)cc3)n2)CC1 -16.9%, COc1cccc(CNC(=O)c2oc3c(c2C)-c2nn(Cc4cccc(Cl)c4)cc2CC3)c1OC -10.9%, C[C@@H](O)[C@H](N)C(=O)O -9.57% [at 23.8 µM], O=C(NCCc1ccc(Cl)cc1)c1ccc(CS(=O)Cc2ccccc2Cl)o1 (stereo not drawn) -14.7%, Cc1ccc(C)c(CNC(=O)CCn2cccn2)c1 -34.5%, O=C(Nc1ccc2nc(SCC(=O)N3CCCC3)sc2c1)c1cccc(Br)c1 -2.93%, Cc1cc(C)cc(N2C(=O)CSC23C(=O)N(CC(=O)Nc2ccc(F)cc2F)c2ccccc23)c1 (stereo not drawn) -19%, Cc1cccc(NC(=O)C2CCN(c3nc4ccccc4[nH]3)CC2)c1C 5.44%, CCCCc1nn2c(=O)cc(COC(=O)c3ccc(NC(=O)CCc4ccccc4)cc3)nc2s1 -16.4%, CCOCCCN1C(=O)c2[nH]nc(-c3ccccc3O)c2C1c1ccc(CC)cc1 (stereo not drawn) -20%, CCOC(=O)c1oc2c(c1C)-c1nn(Cc3c(F)cccc3Cl)cc1CC2 -10.2%, COc1ccccc1NC(=O)c1ccc2oc(=O)c(S(=O)(=O)c3ccccc3)cc2c1 -19.9%, COc1ccc(C(=O)NCCn2cc(SCc3cc(C)ccc3C)c3ccccc32)cc1 10.2%, Cc1ccc(C(C)C)c(OCCCn2c(=O)oc3ccccc32)c1 -3.88%, CC(CNS(=O)(=O)c1ccc2c(c1)CC(=O)N2C)c1ccccc1 (stereo not drawn) -18.1%, CCOC(=O)c1c(C)oc2nc(C)nc(NCCCN3CCN(c4ccc(F)cc4)CC3)c12 -15.1%, CCOc1ccc(C2c3c(oc4ccccc4c3=O)C(=O)N2c2nnc(C)s2)cc1OC (stereo not drawn) -36.1%
